# Some of the results follow.
# B1: CLEC-6 (Homo sapiens), Q8WXI8 (protein)
# chain: MGLEKPQSKLEGGMHPQLIPSVIAVVFILLLSVCFIASCLVTHHNFSRCKRGTGVHKLEHHAKLKCIKEKSELKSAEGSTWNCCPIDWRAFQSNCYFPLTDNKTWAESERNCSGMGAHLMTISTEAEQNFIIQFLDRRLSYFLGLRDENAKGQWRWVDQTPFNPRRVFWHKNEPDNSQGENCVVLVYNQDKWAWNDVPCNFEASRICKIPGTTLN
# Assays:
# Assay in all cases: glycan array binding signal (z-score within array); higher = stronger binding
# Conditions in all cases: glycan notation: IUPAC condensed, linker removed
# [1] = target: Gal(b1-3)[Fuc(a1-4)]GlcNAc(b1-3)Gal(b1-4)[Fuc(a1-3)]GlcNAc
# Summary of the method: (§1)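 The binding signal is a Z-score computed within each array and averaged over linkers. Arrays of the same protein sequence at different concentrations or buffers were also averaged together. Data originate from 3228 arrays in the Consortium for Functional Glycomics database, kept only where the protein sequence was available.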
# [2] = target: Gal(b1-3)[GlcNAc(b1-6)]GalNAc
# Summary of the method: as §1
# [3] = target: Gal(b1-3)[Neu5Ac(a2-6)]GalNAc
# Summary of the method: as §1
# [4] = target: Gal(b1-3)[Neu5Ac(a2-6)]GlcNAc(b1-6)Gal(b1-4)Glc
# Summary of the method: as §1
# [5] = target: Gal(b1-3)[Neu5Ac(b2-6)]GalNAc
# Summary of the method: as §1
# [6] = target: Gal(b1-4)GalNAc(a1-3)[Fuc(a1-2)]Gal(b1-4)GlcNAc
# Summary of the method: as §1
# [7] = target: Gal(b1-4)GalNAc(b1-3)[Fuc(a1-2)]Gal(b1-4)GlcNAc
# Summary of the method: as §1
# Gal(b1-4)Glc = target: Gal(b1-4)Glc
# Summary of the method: as §1
# Gal(b1-4)Glc6S = target: Gal(b1-4)Glc6S
# Summary of the method: as §1
# Gal(b1-4)GlcNAc = target: Gal(b1-4)GlcNAc
# Summary of the method: as §1
# [8] = target: Gal(b1-4)GlcNAc(b1-2)Man(a1-3)[Gal(b1-4)GlcNAc(b1-2)Man(a1-6)]Man(b1-4)GlcNAc(b1-4)GlcNAc
# Summary of the method: as §1
# [9] = target: Gal(b1-4)GlcNAc(b1-3)Gal(b1-4)Glc
# Summary of the method: as §1
# [10] = target: Gal(b1-4)GlcNAc(b1-3)Gal(b1-4)GlcNAc
# Summary of the method: as §1
# [11] = target: Gal(b1-4)GlcNAc(b1-3)Gal(b1-4)GlcNAc(b1-3)Gal(b1-4)GlcNAc
# Summary of the method: as §1
# [12] = target: Gal(b1-4)GlcNAc(b1-3)Gal(b1-4)[Fuc(a1-3)]GlcNAc(b1-3)Gal(b1-4)[Fuc(a1-3)]GlcNAc
# Summary of the method: as §1
# [13] = target: Gal(b1-4)GlcNAc(b1-3)GalNAc
# Summary of the method: as §1
# [14] = target: Gal(b1-4)GlcNAc(b1-3)[Gal(b1-4)GlcNAc(b1-6)]GalNAc
# Summary of the method: as §1
# [15] = target: Gal(b1-4)GlcNAc(b1-6)Gal(b1-4)GlcNAc(b1-6)GalNAc
# Summary of the method: as §1
# [16] = target: Gal(b1-4)GlcNAc(b1-6)GalNAc
# Summary of the method: as §1
# [17] = target: Gal(b1-4)GlcNAc(b1-6)[Gal(b1-3)]GalNAc
# Summary of the method: as §1
# Gal3S(b1-3)GalNAc = target: Gal3S(b1-3)GalNAc
# Summary of the method: as §1
# Gal3S(b1-3)GlcNAc = target: Gal3S(b1-3)GlcNAc
# Summary of the method: as §1
# [18] = target: Gal3S(b1-3)[Fuc(a1-4)]GlcNAc
# Summary of the method: as §1
# Gal3S(b1-4)Glc = target: Gal3S(b1-4)Glc
# Summary of the method: as §1
# Gal3S(b1-4)Glc6S = target: Gal3S(b1-4)Glc6S
# Summary of the method: as §1
# Gal3S(b1-4)GlcNAc = target: Gal3S(b1-4)GlcNAc
# Summary of the method: as §1
# Gal3S(b1-4)GlcNAc6S = target: Gal3S(b1-4)GlcNAc6S
# Summary of the method: as §1
# Gal3S6S(b1-4)GlcNAc = target: Gal3S6S(b1-4)GlcNAc
# Summary of the method: as §1
# Gal3S6S(b1-4)GlcNAc6S = target: Gal3S6S(b1-4)GlcNAc6S
# Summary of the method: as §1
# Gal4S(b1-4)GlcNAc = target: Gal4S(b1-4)GlcNAc
# Summary of the method: as §1
# Gal4S6S(b1-4)GlcNAc = target: Gal4S6S(b1-4)GlcNAc
# Summary of the method: as §1
# Gal6S(b1-4)Glc = target: Gal6S(b1-4)Glc
# Summary of the method: as §1
# Gal6S(b1-4)Glc6S = target: Gal6S(b1-4)Glc6S
# Summary of the method: as §1
# Gal6S(b1-4)GlcNAc = target: Gal6S(b1-4)GlcNAc
# Summary of the method: as §1
# GalNAc(a1-3)Gal = target: GalNAc(a1-3)Gal
# Summary of the method: as §1
# GalNAc(a1-3)GalNAc = target: GalNAc(a1-3)GalNAc
# Summary of the method: as §1
# [19] = target: GalNAc(b1-3)Gal(a1-4)Gal(b1-4)GlcNAc
# Summary of the method: as §1
# GalNAc(b1-3)GalNAc = target: GalNAc(b1-3)GalNAc
# Summary of the method: as §1
# GalNAc(b1-4)GlcNAc = target: GalNAc(b1-4)GlcNAc
# Summary of the method: as §1
# Glc(a1-4)Glc = target: Glc(a1-4)Glc
# Summary of the method: as §1
# Glc(a1-6)Glc(a1-6)Glc = target: Glc(a1-6)Glc(a1-6)Glc
# Summary of the method: as §1
# Glc(b1-4)Glc = target: Glc(b1-4)Glc
# Summary of the method: as §1
# Glc(b1-6)Glc = target: Glc(b1-6)Glc
# Summary of the method: as §1
# GlcA(b1-3)Gal = target: GlcA(b1-3)Gal
# Summary of the method: as §1
# GlcA(b1-6)Gal = target: GlcA(b1-6)Gal
# Summary of the method: as §1
# [20] = target: GlcNAc(a1-3)Gal(b1-4)GlcNAc
# Summary of the method: as §1
# [21] = target: GlcNAc(a1-6)Gal(b1-4)GlcNAc
# Summary of the method: as §1
# [22] = target: GlcNAc(b1-2)Gal(b1-3)GalNAc
# Summary of the method: as §1
# [23] = target: GlcNAc(b1-2)Man(a1-3)[GlcNAc(b1-2)Man(a1-6)]Man(b1-4)GlcNAc(b1-4)GlcNAc
# Summary of the method: as §1
# GlcNAc(b1-3)Gal = target: GlcNAc(b1-3)Gal
# Summary of the method: as §1
# [24] = target: GlcNAc(b1-3)Gal(b1-3)GalNAc
# Summary of the method: as §1
# GlcNAc(b1-3)Gal(b1-4)Glc = target: GlcNAc(b1-3)Gal(b1-4)Glc
# Summary of the method: as §1
# [25] = target: GlcNAc(b1-3)Gal(b1-4)GlcNAc
# Summary of the method: as §1
# [26] = target: GlcNAc(b1-3)Gal(b1-4)GlcNAc(b1-3)Gal(b1-4)GlcNAc
# Summary of the method: as §1
# GlcNAc(b1-3)GalNAc = target: GlcNAc(b1-3)GalNAc
# Summary of the method: as §1
# [27] = target: GlcNAc(b1-3)[GlcNAc(b1-6)]Gal(b1-4)GlcNAc
# Summary of the method: as §1
# [28] = target: GlcNAc(b1-3)[GlcNAc(b1-6)]GalNAc
# Summary of the method: as §1
# [29] = target: GlcNAc(b1-3)[GlcNAc(b1-6)]GlcNAc(b1-4)GlcNAc
# Summary of the method: as §1
# [30] = target: GlcNAc(b1-4)Gal(b1-4)GlcNAc
# Summary of the method: as §1
# [31] = target: GlcNAc(b1-4)GlcNAc(b1-4)GlcNAc
# Summary of the method: as §1
# [32] = target: GlcNAc(b1-4)GlcNAc(b1-4)GlcNAc(b1-4)GlcNAc(b1-4)GlcNAc
# Summary of the method: as §1
# [33] = target: GlcNAc(b1-4)GlcNAc(b1-4)GlcNAc(b1-4)GlcNAc(b1-4)GlcNAc(b1-4)GlcNAc
# Summary of the method: as §1
# [34] = target: GlcNAc(b1-4)[GlcNAc(b1-6)]GalNAc
# Summary of the method: as §1
# [35] = target: GlcNAc(b1-6)Gal(b1-4)GlcNAc
# Summary of the method: as §1
# GlcNAc(b1-6)GalNAc = target: GlcNAc(b1-6)GalNAc
# Summary of the method: as §1
# Kdn(a2-3)Gal(b1-3)GlcNAc = target: Kdn(a2-3)Gal(b1-3)GlcNAc
# Summary of the method: as §1
# Kdn(a2-3)Gal(b1-4)GlcNAc = target: Kdn(a2-3)Gal(b1-4)GlcNAc
# Summary of the method: as §1
binder,measurement,setting,value
B1,glycan array binding signal (z-score),[1],-0.169
same,glycan array binding signal (z-score),[2],-0.198
same,glycan array binding signal (z-score),[3],-0.072
same,glycan array binding signal (z-score),[4],-0.241
same,glycan array binding signal (z-score),[5],-0.108
same,glycan array binding signal (z-score),[6],-0.293
same,glycan array binding signal (z-score),[7],-0.032
same,glycan array binding signal (z-score),Gal(b1-4)Glc,-0.238
same,glycan array binding signal (z-score),Gal(b1-4)Glc6S,-0.263
same,glycan array binding signal (z-score),Gal(b1-4)GlcNAc,-0.473
same,glycan array binding signal (z-score),[8],-0.225
same,glycan array binding signal (z-score),[9],-0.304
same,glycan array binding signal (z-score),[10],-0.303
same,glycan array binding signal (z-score),[11],-0.301
same,glycan array binding signal (z-score),[12],-0.095
same,glycan array binding signal (z-score),[13],-0.19
same,glycan array binding signal (z-score),[14],-0.152
same,glycan array binding signal (z-score),[15],-0.24
same,glycan array binding signal (z-score),[16],-0.363
same,glycan array binding signal (z-score),[17],-0.25
same,glycan array binding signal (z-score),Gal3S(b1-3)GalNAc,-0.08
same,glycan array binding signal (z-score),Gal3S(b1-3)GlcNAc,-0.242
same,glycan array binding signal (z-score),[18],-0.214
same,glycan array binding signal (z-score),Gal3S(b1-4)Glc,-0.299
same,glycan array binding signal (z-score),Gal3S(b1-4)Glc6S,0.639
same,glycan array binding signal (z-score),Gal3S(b1-4)GlcNAc,-0.086
same,glycan array binding signal (z-score),Gal3S(b1-4)GlcNAc6S,0.732
same,glycan array binding signal (z-score),Gal3S6S(b1-4)GlcNAc,0.3
same,glycan array binding signal (z-score),Gal3S6S(b1-4)GlcNAc6S,6.21
same,glycan array binding signal (z-score),Gal4S(b1-4)GlcNAc,-0.094
same,glycan array binding signal (z-score),Gal4S6S(b1-4)GlcNAc,0.422
same,glycan array binding signal (z-score),Gal6S(b1-4)Glc,-0.177
same,glycan array binding signal (z-score),Gal6S(b1-4)Glc6S,0.133
same,glycan array binding signal (z-score),Gal6S(b1-4)GlcNAc,-0.239
same,glycan array binding signal (z-score),GalNAc(a1-3)Gal,-0.293
same,glycan array binding signal (z-score),GalNAc(a1-3)GalNAc,-0.293
same,glycan array binding signal (z-score),[19],-0.16
same,glycan array binding signal (z-score),GalNAc(b1-3)GalNAc,-0.124
same,glycan array binding signal (z-score),GalNAc(b1-4)GlcNAc,-0.155
same,glycan array binding signal (z-score),Glc(a1-4)Glc,-0.285
same,glycan array binding signal (z-score),Glc(a1-6)Glc(a1-6)Glc,-0.527
same,glycan array binding signal (z-score),Glc(b1-4)Glc,-0.151
same,glycan array binding signal (z-score),Glc(b1-6)Glc,-0.063
same,glycan array binding signal (z-score),GlcA(b1-3)Gal,-0.155
same,glycan array binding signal (z-score),GlcA(b1-6)Gal,-0.153
same,glycan array binding signal (z-score),[20],-0.194
same,glycan array binding signal (z-score),[21],-0.328
same,glycan array binding signal (z-score),[22],0.12
same,glycan array binding signal (z-score),[23],-0.084
same,glycan array binding signal (z-score),GlcNAc(b1-3)Gal,-0.179
same,glycan array binding signal (z-score),[24],-0.16
same,glycan array binding signal (z-score),GlcNAc(b1-3)Gal(b1-4)Glc,-0.07
same,glycan array binding signal (z-score),[25],-0.077
same,glycan array binding signal (z-score),[26],-0.335
same,glycan array binding signal (z-score),GlcNAc(b1-3)GalNAc,-0.247
same,glycan array binding signal (z-score),[27],-0.336
same,glycan array binding signal (z-score),[28],-0.276
same,glycan array binding signal (z-score),[29],0.153
same,glycan array binding signal (z-score),[30],-0.125
same,glycan array binding signal (z-score),[31],-0.369
same,glycan array binding signal (z-score),[32],-0.21
same,glycan array binding signal (z-score),[33],-0.062
same,glycan array binding signal (z-score),[34],-0.138
same,glycan array binding signal (z-score),[35],-0.234
same,glycan array binding signal (z-score),GlcNAc(b1-6)GalNAc,-0.106
same,glycan array binding signal (z-score),Kdn(a2-3)Gal(b1-3)GlcNAc,-0.178
same,glycan array binding signal (z-score),Kdn(a2-3)Gal(b1-4)GlcNAc,-0.159

# From the supplement of paper PMC8728848
